Measurements published in PubChem BioAssay AID360 (National Center for Advancing Translational Sciences (NCATS), 2006).
About 550 (1.1%) of roughly 48,000 compounds were called active. Roughly 4% stayed inconclusive and do not appear here. Rule as the data show it: active = potency below about 15 µM; inconclusive = mostly about 16 µM to 33 µM; inactive = weaker than that. The list shows a part of the results.

Each molecule was assayed against Lysosomal acid glucosylceramidase (Homo sapiens) (UniProt P04062) (assay: Glucocerebrosidase). Settings: purified enzyme, resorufin glucoside fluorescence (screen aimed at inhibitors), 20 min.
Procedure, shortened: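 Normal human glucocerebrosidase (0.2 nM final) was assayed with resorufin β-D-glucopyranoside (30 uM final) in 50mM citric acid/KH2PO4, 10mM sodium taurocholate, 0.01% tween-20, pH 5.9. Compounds were titrated; fluorescence (Ex 548, Em 600) read after 20 min at RT.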
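Also: the screen sought inhibitors.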
Potency is read from the fitted curve at half-maximal effect.

Sequence of UniProt P04062 (P04062 whole entry, looked up): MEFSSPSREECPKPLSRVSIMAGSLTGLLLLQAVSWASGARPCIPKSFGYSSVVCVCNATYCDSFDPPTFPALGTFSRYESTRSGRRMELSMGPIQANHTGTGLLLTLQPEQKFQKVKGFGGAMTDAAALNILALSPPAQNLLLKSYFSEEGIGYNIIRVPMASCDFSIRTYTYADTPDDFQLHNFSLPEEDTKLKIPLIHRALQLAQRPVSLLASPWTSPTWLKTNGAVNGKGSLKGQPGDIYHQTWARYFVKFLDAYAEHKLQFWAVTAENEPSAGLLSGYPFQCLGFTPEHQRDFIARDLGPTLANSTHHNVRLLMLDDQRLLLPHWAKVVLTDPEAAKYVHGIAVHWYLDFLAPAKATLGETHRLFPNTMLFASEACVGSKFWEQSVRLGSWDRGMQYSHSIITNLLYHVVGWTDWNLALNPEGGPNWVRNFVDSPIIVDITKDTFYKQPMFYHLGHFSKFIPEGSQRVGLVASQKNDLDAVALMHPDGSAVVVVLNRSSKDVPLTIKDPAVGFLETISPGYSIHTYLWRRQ

Potency, inactive:
CC(=O)N1C(C(=O)O)CSC1c1cccc(C)c1 (configuration not stated) > 76.9 µM
Cc1nc2ccccc2c(=O)n1NCc1cc(Br)cs1 > 76.9 µM
COc1ccc(NC2=C(C(C)=O)C(c3ccc4c(c3)OCO4)C(C(C)=O)C(C)(O)C2)cc1 (configuration not stated) > 76.9 µM
COC(=O)c1ccccc1NC(=O)Nc1cccnc1 > 76.9 µM
CC1(Cc2ccc3c(c2)OCO3)NC(=O)NC1=O (configuration not stated) > 76.9 µM
Cc1cccc(-n2ncc3c(NCc4ccccn4)ncnc32)c1 > 76.9 µM
Cc1ccc(C(CC(=O)N2CCOCC2)c2ccco2)cc1 (configuration not stated) > 76.9 µM
CCOC(=O)C1CCCCN1Cc1ccccc1C(F)(F)F (configuration not stated) > 76.9 µM
COc1ccc(CCNC(=O)C2CCN(Cc3nc(-c4cccc(Cl)c4)oc3C)CC2)cc1OC > 76.9 µM
Cc1ccc2cccc(Oc3cnccn3)c2n1 > 76.9 µM
CCOC(=O)c1cnc2cc3c(cn2c1=O)CCCC3 > 76.9 µM
C#CCOC(=O)c1ccccc1C(=O)N(CC)CC > 76.9 µM
COc1ccccc1N1CCN(C(=O)C(F)F)CC1 > 76.9 µM
O=C(c1cccs1)N(Cc1ccco1)C1CCS(=O)(=O)C1 (configuration not stated) > 76.9 µM
N#Cc1nc(-c2ccccc2)oc1N1CCCCC1 > 76.9 µM
Nc1c(S(=O)(=O)c2ccccc2)c2nc3ccccc3nc2n1/N=C/c1cccc(O)c1 > 76.9 µM
COc1ccc2c(c1)OCC1=C2CCC2(C)C(=O)CC=C12 (configuration not stated) > 76.9 µM
Cc1ccc2cc(S(=O)(=O)NCCCC(=O)O)ccc2c1 > 76.9 µM
CN(C)CCCN1C(=O)C(=O)/C(=C(/O)c2ccc3c(c2)OCO3)C1c1cccnc1 (configuration not stated) > 76.9 µM
CC(=O)c1cccc(NC(=O)NCc2ccccn2)c1 > 76.9 µM
Cn1c(=O)c2c(nc(NCCCN3CCOCC3)n2Cc2ccc(Cl)cc2Cl)n(C)c1=O > 76.9 µM
Cc1ccc(O)c(NC(=O)C2CC(c3c(F)cccc3Cl)=NO2)c1 (configuration not stated) > 76.9 µM
CC(=O)C1=C(C)Nc2ncnn2C1c1ccccc1OCc1ccccc1 (configuration not stated) > 76.9 µM
CCOC(=O)CN(Cc1ccccc1)S(=O)(=O)c1ccc(NC(C)=O)cc1 > 76.9 µM
O=C(CSc1nc2ccccc2[nH]1)c1cccs1 > 76.9 µM
Cc1nnc(SCCc2ccccc2)[nH]c1=O > 76.9 µM
CCN(CC)CCCNC(=O)C1CCC(=O)N(c2ccc(OC)cc2)C1c1ccc(F)cc1 (configuration not stated) > 76.9 µM
O=C(Cn1nnc(-c2ccc3c(c2)OCO3)n1)NCc1ccco1 > 76.9 µM
O=C(CCNc1ccc(F)cc1)c1ccco1 > 76.9 µM
COc1ccc(S(=O)(=O)NCc2ccc(C(=O)N3CCN(c4ccccn4)CC3)cc2)cc1 > 76.9 µM
COC(=O)c1c(NC(=O)c2ccoc2C)sc2c1CCC2 > 76.9 µM
CCN1CC2=C(OC(N)=C(C#N)C2c2cccs2)/C(=C/c2cccs2)C1 (configuration not stated)
COc1ccc(-c2nnc(-c3ccc(N)cc3)o2)cc1 > 76.9 µM
CCc1ccc2[nH]c(=O)c(CN(CCN(CC)CC)C(=O)NC3CCCCC3)cc2c1 > 76.9 µM
CCC(Sc1nc2n[nH]c(C)c2c(=N)n1-c1ccc(C)c(Cl)c1)C(=O)N1CCOCC1 (configuration not stated) > 76.9 µM
COc1ccc(C(CNC(=O)c2cc(=O)[nH]c3ccccc23)N2CCCC2)cc1 (configuration not stated) > 76.9 µM
Cc1csc(N2CCc3ccccc32)n1 > 76.9 µM
O=C1c2oc3ccccc3c(=O)c2C(c2ccc(Cl)cc2)N1c1ncccn1 (configuration not stated) > 76.9 µM
COc1ccc(C(=O)NCCNC(C)=O)cc1S(=O)(=O)NCc1ccc(Cl)cc1 > 76.9 µM
CCOCCn1c(CN2CCC(Cc3ccccc3)CC2)nc2c1c(=O)n(C)c(=O)n2C > 76.9 µM
Cc1ccc(N(CC(=O)Nc2ccc(C)cn2)S(=O)(=O)c2c(C)nn(C)c2C)cc1 > 76.9 µM
CCOC(=O)N1CCN(S(=O)(=O)c2cc3c(cc2C)NC(=O)CO3)CC1 > 76.9 µM
CCN(CC)S(=O)(=O)c1ccc2oc(C(=O)Nc3ccc(OC)cc3OC)c(C)c2c1 > 76.9 µM
Cc1cc(N2CCN(C(=O)c3ccco3)CC2)n2nc(-c3cccc(Cl)c3)cc2n1 > 76.9 µM
CCCN(c1ccc(C(C)C)cc1)S(=O)(=O)c1c(C)[nH]c(=O)[nH]c1=O > 76.9 µM
Cc1ccc(C)c(OCC(=O)Nc2ccc3c(c2)OCO3)c1C > 76.9 µM
O=C(NC1CCCC1)C1CCCN(S(=O)(=O)c2ccc(-n3cnnn3)cc2)C1 (configuration not stated) > 76.9 µM
Cc1cc(NC(=O)CSc2nc3ccccc3c(=O)n2C2CCCC2)no1 > 76.9 µM
O=C(C1CCN(S(=O)(=O)N2CCC3(CC2)OCCO3)CC1)N1CCc2ccccc2C1 > 76.9 µM
COC(=O)/C=c1\sc2ncnn2c1=O > 76.9 µM
O=C(CCCn1c(SCC(=O)c2ccc(Cl)cc2)nc2ccccc2c1=O)NCc1ccco1 > 76.9 µM
Cc1cc(Cl)ccc1OCC(=O)Nc1ccccc1CO > 76.9 µM
O=C1CC(c2ccccc2)CC(O)=C1C=NCCCN1CCOCC1 (configuration not stated) > 76.9 µM
COc1cc2nc(=S)n3[nH]c(CCn4c(C)nc5ccccc54)nc3c2cc1OC > 76.9 µM
COc1ccc(N(CC(=O)NCC2CCCO2)S(=O)(=O)c2c(C)noc2C)cc1 (configuration not stated) > 76.9 µM
C=CCn1c(Cc2csc(N)n2)nnc1SCC(=O)Nc1ccc(C(=O)OCC)cc1 > 76.9 µM
COc1ccc(-c2noc(CN(C(=O)C(C)(C)C)C(C)C)n2)cc1 > 76.9 µM
